Legend:
[1] = molecular target: T1, MIP-P3-His (disulfide trap single-chain trimer of PRAME antigen peptide … and HLA-A24, His tag) (human); assay: SPR, Biacore T200, as in Section 2.3; MIP-P3-His as analyte
T1 construct: Single polypeptide; His tag added at the C-terminus; also called dtSCT; MIP-P3-His fusion protein

[2] = molecular target: T2, HLA-A24/PRAME complex: PRAME301-309 (…) presented by HLA-A24 on cells (human; human (homo sapiens)); assay: flow cytometry on peptide-pulsed HT-29 cells, anti-human IgG-FITC
T2 construct: whole, on cells

[3] = molecular target: T1, MIP-P3-His (disulfide trap single-chain …); assay: SPR, Biacore T200; antibody captured by anti-human IgG(Fc), MIP-P3-His as analyte, 1:1 model

B1: N83G3-Fc recombinant protein (anti-HLA-A24/PRAME antibody N83G3) (Fc fusion)
chain: QVQLVESGGGLVQAGGSLRLSCAASGASLDIYVMGWYRQATGKERDLVAVITGSGNTNYADSVKGRFTISRDDAKNTLYLQMSSLKPEDTAVYYCAGGRPSRYYRDSGTWADFWGQGTQVTVSSAS[human IgG1 Fc with changes not given here]
notes: Llama VHH fused to the Fc of human IgG1; In SPR it was captured by an anti-human IgG(Fc) antibody; in flow cytometry it was detected with anti-human IgG-FITC; also called TCRm antibody N83G3; anti-HLA-A24/PRAME monoclonal antibody N83G3
[1]
  Kd: 0.0509 nM
  koff: 4.67e-05 s⁻¹
  kon: 918000 M⁻¹ s⁻¹
[2]
  binding result: binds
[3]
  Kd: 0.0579 nM
  koff: 4.03e-05 s⁻¹
  kon: 696000 M⁻¹ s⁻¹
